The results in this text go back to PubChem BioAssay AID463173 (ICCB-Longwood Screening Facility, Harvard Medical School, 2010).

Molecules are shown by their SMILES. The whole screen tested about 52,000 compounds, of which about 1,700 (3.3%) were called active. Rule as the data show it: active = survival mostly below about 52% (no sharp cut-off); inactive = mostly above about 56%. The list shows a part of the results.

This assay deals with Wild type. Kind of assay: growth inhibition of S. aureus wild type versus tarO mutant, primary screen, teichoic acid synthesis inhibitors, RN4220, OD600 (AID 463173). The note with it: S. aureus RN4220 wild type/DeltatarO growth, OD600, 18 h, stronger effect = lower value, screened at 18.75 µg/mL (by protocol).
With `O=C(Cn1cc(C(=O)c2ccco2)c2ccccc21)Nc1ccccc1Cl`, the survival was inactive: 69%.

`O=C(NCc1cccnc1)C(=O)NCC(c1cccnc1)N1CCN(c2ccccc2F)CC1` (stereo unspecified): the survival is inactive: 108%.

For `Cc1nn(-c2ccc(F)cc2)c(-n2cccc2)c1C(=O)NCCCN1CCN(c2cccc(Cl)c2)CC1`, the survival is inactive: 110%.

On to `CCOC(=O)c1sc2ccccc2c1S(=O)(=O)N1CCN(c2cccc(C)c2C)CC1`, for which the survival was inactive: 75%.

`CCOC(=O)c1sc2ccccc2c1S(=O)(=O)N1CCN(c2cccc(OC)c2)CC1`: the survival is inactive: 55%.

Turning to `Cc1cc(C)c2c(=O)cc(C(=O)Nc3ccc(S(=O)(=O)N(C)Cc4ccccc4)cc3)oc2c1`, the survival was inactive: 82%.

Take `O=C(C1CCN(S(=O)(=O)c2cccc3nonc23)CC1)N1CCN(c2ccccc2F)CC1`: the survival was inactive: 67%.

As for `Cc1ccc(C(c2ccccc2)c2c(C)[nH]c3ccccc23)s1` (stereo unspecified), the survival is inactive: 86%.

`Cc1ccc2nc(-c3c[nH]c4ccccc34)c(Nc3ccccc3C)n2c1`: the survival is inactive: 98%.

Turning to `Nc1nnc(SCC(=O)Nc2ccccc2)s1`, the survival was inactive: 65%.

On to `COc1cccc(NC(=O)Cn2c(=O)n(CC(=O)NCc3ccc(C)cc3)c(=O)c3sccc32)c1`, for which the survival was inactive: 88%.

Consider `Cc1ccc(/C=C/C(=O)Nc2ccc(S(N)(=O)=O)cc2)o1`, for which the survival was inactive: 72%.

Regarding `Cc1ccc(-c2cc(NC(=O)COc3ccc(Cl)c(C)c3)on2)cc1`, the survival is inactive: 98%.

`CCN1CCN(C(=O)Cn2ncc3c4ccccc4n(Cc4ccccc4)c3c2=O)CC1`: the survival is inactive: 86%.

As to `COCCNC(=O)c1nc2c(nnn2Cc2cc(C)ccc2C)c(=O)[nH]1`, the survival was inactive: 113%.

On to `O=C(COc1ccc(Br)cc1)N/N=C1\SCC(=O)N1c1ccc(F)cc1`, for which the survival was inactive: 116%.

`Cc1cc(C)c(Cn2c3ccccc3c3cnn(CC(=O)NCc4ccccn4)c(=O)c32)c(C)c1`: the survival is inactive: 137%.

Take `COc1ccccc1CCNC(=O)C(=O)NCC(c1cccs1)S(=O)(=O)c1ccccc1` (stereo unspecified): the survival was inactive: 84%.

Turning to `CC(=NC1CC1)C1=C(O)c2ccccc2C1=O`, the survival was inactive: 107%.

For `CCOC(=O)c1cccc(NC(=O)c2cn(-c3cccc(OC)c3)c(=O)c3ccccc23)c1`, the survival is inactive: 86%.

With `CCc1nc(SCC(=O)O)c(C#N)cc1C`, the survival was inactive: 96%.

With `O=C(CCS(=O)(=O)c1ccc(Br)cc1)Nc1ccc(Cl)c(C(F)(F)F)c1`, the survival was inactive: 138%.

As for `Cc1cccc(Cn2c(=O)n(Cc3ccccc3)c(=O)c3oc4ccccc4c32)c1`, the survival is inactive: 84%.

Regarding `Cc1ccccc1NC(=O)C1CCN(C(=O)c2cnn(-c3ccccc3)c2-n2cccc2)CC1`, the survival is inactive: 73%.

For `Cc1ccc(Sc2ccc(N3CCC(C(=O)Nc4ccc(C)c(F)c4)CC3)nn2)cc1`, the survival was inactive: 62%.

For the molecule `Fc1cc(F)c2ncc3c(-c4ccccc4)nn(-c4cccc(Cl)c4)c3c2c1`, the survival is inactive: 111%.

`CC(C)OCCCNC(=O)C(=O)Nc1ccc2nc3n(c(=O)c2c1)CCCCC3`: the survival was inactive: 99%.

Take `COc1ccc(-c2cc(C(F)(F)F)nc(-n3nc(C(F)(F)F)cc3C)n2)cc1`: the survival was inactive: 50%.

With `COc1cc(NC(=O)N(Cc2ccco2)C2CCN(C(C)=O)CC2)cc(OC)c1OC`, the survival is inactive: 159%.

For `Cc1cccc(-c2nc3nc(C)cc(NCc4ccccc4Cl)n3n2)c1`, the survival is inactive: 83%.

With `CCc1ccc(-n2c(N3CCN(c4cccc(Cl)c4)CC3)nc3ccccc3c2=O)cc1`, the survival is inactive: 86%.

`Cc1ccc(NC(=O)N(Cc2cc3cc(C)cc(C)c3[nH]c2=O)CC2COCCO2)cc1` (stereo unspecified): the survival was inactive: 104%.

With `CC1CCN(c2oc(-c3ccc(COc4ccccc4)o3)nc2C#N)CC1`, the survival is inactive: 75%.

In the case of `O=C(NCC(c1cccs1)S(=O)(=O)c1cccs1)c1ccc(Cl)cc1` (stereo unspecified), the survival was inactive: 70%.

For `c1ccc(CN2CCCN(c3nc4c(c(NCCN5CCOCC5)n3)CCCC4)CC2)cc1`, the survival is inactive: 104%.

For `Cc1ccc(-n2c(SCC(=O)NCc3ccccc3)nc3n[nH]c(C)c3c2=N)cc1Cl`, the survival was active: -6%.

Consider `Cc1ccc(-c2nc3nc(C)cc(C)n3c2Nc2ccc3c(c2)OCCO3)cc1`, for which the survival was inactive: 129%.

Regarding `CC(=O)N1CCc2cc(Br)cc(S(=O)(=O)N3CCC(C)CC3)c21`, the survival was inactive: 124%.

As to `CC(C)c1cnc2c(c1SCc1cccc(F)c1)c(=O)n(C)c(=O)n2C`, the survival was inactive: 74%.

On to `CC(=O)c1ccc(NC(=O)c2nc(-c3ccccc3)n(-c3ccc(Cl)cc3)n2)cc1`, for which the survival was inactive: 47%.

Regarding `CCOc1ccc(NC(=O)Cn2c(=O)n(Cc3nc(-c4ccccc4)no3)c(=O)c3cc4c(cc32)OCO4)cc1`, the survival was inactive: 80%.

Turning to `Cc1nc2nc(NC(=O)C(C)(C)C)[nH]n2c(=O)c1Cc1ccccc1`, the survival is inactive: 112%.

Consider `CN1CCN(CCC(=O)Nc2cccc(F)c2)CC1`, for which the survival is inactive: 111%.

For `CCOC(=O)c1cc2c(=O)n3ccccc3nc2n(CCOC)c1=NC(=O)C(C)(C)Oc1ccc(Cl)cc1`, the survival was inactive: 63%.

As for `Cc1ccc(Cn2ccn(CC(=O)Nc3c(C)cc(C)cc3C)c(=O)c2=O)cc1`, the survival is inactive: 85%.

For `CCCCN(C)CCCNC(=O)Cn1ncc2c3ccccc3n(Cc3ccccc3F)c2c1=O`, the survival was inactive: 90%.

Consider `Cc1noc(-c2ccc(N3CCC(C)CC3)c([N+](=O)[O-])c2)n1`, for which the survival is inactive: 88%.

Regarding `CC(O)/C=C/c1ccncc1` (stereo unspecified), the survival was inactive: 95%.

Consider `O=C(CSC1=Nc2ccccc2C2=NC(Cc3ccccc3)C(=O)N12)Nc1ccccc1C(F)(F)F` (stereo unspecified), for which the survival was inactive: 88%.

Consider `COc1cc(NC(=O)C2CCN(S(=O)(=O)c3ccc4c(c3)oc(=O)n4C)CC2)cc(OC)c1`, for which the survival was inactive: 88%.

For the molecule `COc1ccc(NS(=O)(=O)c2cc3c(cc2C)NC(=O)CO3)c(OC)c1`, the survival is inactive: 85%.

On to `Cc1cccc(CNC(=O)c2oc3c(c2C)-c2nn(Cc4cccc(Cl)c4)cc2CC3)c1`, for which the survival is inactive: 123%.

In the case of `Cc1cn2c(=O)cc(COc3ccccc3NC(=O)c3ccc(C(C)(C)C)cc3)nc2s1`, the survival is inactive: 84%.

Regarding `COC(=O)c1ccc2c(c1)N(CC(=O)Nc1cccc(Cl)c1C)C(=O)c1ccccc1S2`, the survival was inactive: 71%.

Turning to `CC(C)NC(=O)Cn1c(=O)nc(-c2ccccc2F)c2cc(Cl)ccc21`, the survival is inactive: 73%.

With `CCOc1ccc(CN2C(=O)c3ccccc3Sc3ccc(C(=O)NC)cc32)cc1`, the survival is inactive: 78%.
